PubChem BioAssay AID488969 (Vanderbilt High Throughput Screening Facility, 2010)
The full ranking holds about 110,000 compounds; the median of “z-score” is about -0.1, and the highest 2% start at about 2. The list shows a part of the results.

target: Metabotropic glutamate receptor 8 (Rattus norvegicus) (UniProt P70579); assay: mGluR8 Gi/Go-coupled signaling modulation – cell-based, rat, thallium flux, HTS, primary screen (AID 488969); details: HEK293 rat mGluR8, GIRK (G protein-gated inwardly rectifying potassium channel) thallium flux, FluoZin2; at 10 µM; stronger effect = higher value; submaximal glutamate (EC20) added with thallium
Chain of UniProt P70579 (P70579 whole entry, looked up): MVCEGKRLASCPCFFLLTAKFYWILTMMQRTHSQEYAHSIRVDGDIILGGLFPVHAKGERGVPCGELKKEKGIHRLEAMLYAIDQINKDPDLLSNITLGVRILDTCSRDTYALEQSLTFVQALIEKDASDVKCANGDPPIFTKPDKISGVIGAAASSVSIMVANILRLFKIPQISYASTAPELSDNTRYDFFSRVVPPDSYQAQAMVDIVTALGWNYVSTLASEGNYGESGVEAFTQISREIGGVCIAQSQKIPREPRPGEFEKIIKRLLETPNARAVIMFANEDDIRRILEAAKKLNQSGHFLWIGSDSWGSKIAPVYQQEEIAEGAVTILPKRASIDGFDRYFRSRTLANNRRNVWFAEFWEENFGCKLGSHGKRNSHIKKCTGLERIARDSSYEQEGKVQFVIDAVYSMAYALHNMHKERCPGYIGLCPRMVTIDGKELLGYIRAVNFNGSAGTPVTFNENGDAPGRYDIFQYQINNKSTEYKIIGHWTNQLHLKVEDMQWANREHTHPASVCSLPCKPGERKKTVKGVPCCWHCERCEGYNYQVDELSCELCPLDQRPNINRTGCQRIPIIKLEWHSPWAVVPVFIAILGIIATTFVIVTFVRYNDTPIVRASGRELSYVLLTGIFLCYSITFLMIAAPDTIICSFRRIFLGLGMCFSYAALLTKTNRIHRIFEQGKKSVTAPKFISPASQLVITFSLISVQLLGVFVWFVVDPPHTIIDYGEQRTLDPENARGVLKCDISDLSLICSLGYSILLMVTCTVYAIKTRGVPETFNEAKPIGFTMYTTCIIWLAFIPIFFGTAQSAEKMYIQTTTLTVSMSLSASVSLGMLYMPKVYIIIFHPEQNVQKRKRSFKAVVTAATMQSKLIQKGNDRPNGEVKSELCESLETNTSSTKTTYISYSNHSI

| Structure (SMILES) | z-score |
| --- | --- |
| COc1ccc(S(=O)(=O)Cc2ccc(C(=O)NCCCN3CCc4ccccc4C3)o2)cc1 | 0.188 |
| O=C(CSc1nnc(-c2ccccc2)c(-c2ccccc2)n1)NCc1ccco1 | -1.95 |
| c1ccc(Oc2cccc(OCCCCN3CCCC3)c2)cc1 | -0.416 |
| O=c1cc(O)c2sc3nc(-c4ccccc4)cc(C(F)(F)F)c3c2[nH]1 | -1.89 |
| COc1ccc(OC)c(NC(=O)c2cnn(-c3ccccc3Cl)c2NC(=O)c2ccco2)c1 | -0.296 |
| CCOC(=O)c1ccc(N/C=C/C(=O)c2ccc(OC)cc2)cc1 | -0.762 |
| CC(=O)c1cccc(S(=O)(=O)NC2CC2)c1 | -0.145 |
| CCCC(CCC)n1[nH]c(=O)c2c(C)cc(C)nc21 | 0.0117 |
| CC(=O)NC(CC(=O)NC1CCCCC1)c1ccccc1 (stereo not given) | -0.125 |
| c1ccc(-c2nc(-c3ccccn3)no2)cc1 | -1.16 |
| COC(=O)c1ccccc1OCCOc1ccccc1C(=O)OC | -0.901 |
| Cc1ccc(OC(=O)c2cc3ccccc3o2)cc1 | 1.63 |
| C=CCn1c(SCC(=O)/C(C#N)=C(\C)N)nc2sc(CC)cc2c1=O | -0.441 |
| O=C(COc1ccc2ccccc2c1Br)Nn1cnnc1 | -0.0301 |
| CCCCOc1ccc(CSC2=NCCN2)cc1[N+](=O)[O-] | 0.44 |
| COc1ccc(OC)c(NC(=O)Cc2coc3ccc(C)cc23)c1 | -0.0955 |
| O=C(Cn1c(=O)n(Cc2ccco2)c(=O)c2cc(Cl)ccc21)NCC1CCCO1 (stereo not given) | 0.0105 |
| O=C(NC1CCCC1)C(c1ccncc1)N(Cc1ccccc1)C(=O)Cc1cccs1 (stereo not given) | -0.175 |
| CCC(=O)n1nc(-c2ccc(Cl)cc2)nc1NCc1ccccc1 | 0.237 |
| O=C(N/N=C/c1ccccc1)c1ccc(CN2C(=O)c3cccc4cccc2c34)cc1 | -0.149 |
| O=C(COC(=O)CN1C(=O)C(=O)c2ccccc21)OCN1C(=O)c2ccccc2C1=O | -0.0392 |
| O=C(Cc1ccc(Cl)cc1)Nc1ccc(-c2nnc(-c3ccco3)o2)cc1 | -0.191 |

| Structure (SMILES) | z-score |
| --- | --- |
| Clc1ccc(-n2nnnc2-c2cnc(-c3ccncc3)nc2-c2cccs2)cc1 | -0.676 |
| COc1ccc(OC)c(S(=O)(=O)Nc2cnc3ccccc3c2)c1 | -0.244 |
| Cc1ccc(S(=O)(=O)C2(C(=O)Nc3cccnc3)CC2)cc1 | -0.0438 |
| Nc1ccc(Br)cc1C(=O)O | 0.0923 |
| C/C(=C\C(=O)c1ccc(Br)cc1)Nc1cccc(Cl)c1 | 0.0464 |
| CC(/C=N/NC(=O)c1cc(C(C)(C)C)[nH]n1)=C\c1ccccc1 | -0.572 |
| N=C1CCCN1CC(=O)c1ccc(Cl)cc1 | 0.073 |
| COc1ccc(S(=O)(=O)Cc2ccc(C(=O)NCc3cccs3)o2)cc1 | 0.0328 |
| COc1ccc(/C=N/Nc2nc(-c3ccc(Cl)cc3)cc(C(F)(F)F)n2)cc1OC | -0.203 |
| COc1ccc(-n2c(C)nnc2SCC(=O)N2C(C)CCCC2C)cc1 (stereo not given) | 0.00573 |
| CCCN1Cc2cccc(C(=O)Nc3ccc4c(c3)OCCO4)c2C1=O | -0.798 |
| CCCCn1nnnc1SCC(=O)Nc1ccc2c(c1)OCCO2 | -0.304 |
| COc1ccc(CCNS(=O)(=O)c2cn(C)c(=O)n(C)c2=O)cc1 | 1.08 |
| CC(C)NC(=O)c1cc(-c2cccs2)on1 | 0.689 |
| COc1ccc(Cl)cc1NC(=S)N1CCN(C(=O)c2ccco2)CC1 | 0.159 |
| O=C(Nc1ncc2c(n1)CC(c1ccccc1)CC2=O)c1ccco1 (stereo not given) | -0.0151 |
| CC(NC(=O)COc1ccc(Oc2ccccc2)cc1)C(=O)O (stereo not given) | -2.05 |
| C/C(=N\NC(=O)C1CC1)c1ccc(Cl)c(Cl)c1 | -0.0353 |
| Cc1ccc([N+](=O)[O-])cc1NC(=S)NC(=O)CC(C)(C)C | 0.834 |
| O=C(CN1CCCC1=O)NC1(C(F)(F)F)NC(=O)N(Cc2ccccc2)C1=O (stereo not given) | -0.208 |
| CCOC(=O)c1sc(C)c2c(=O)n(CC(=O)c3ccc(Br)cc3)nnc12 | 0.149 |
| COc1ccc(N2CCN(c3ccc(N)cc3C#N)CC2)cc1 | 0.0332 |

| Structure (SMILES) | z-score |
| --- | --- |
| Cc1noc(C)c1CN1C(=O)NC2(CCc3ccccc3C2)C1=O (stereo not given) | -0.622 |
| COc1ccc(-n2c(Cc3cc(=O)[nH]c(=O)[nH]3)nnc2SCC(=O)NC2CCCC2)cc1 | 0.273 |
| O=C(CCl)Oc1ccc2occ(C(=O)c3cccs3)c2c1 | -0.0454 |
| CCOC(=O)c1ccccc1NC(=O)CSc1ccccc1 | -0.48 |
| O=C(c1ccccc1)N1CCN(C2c3cccc4cccc(c34)C2NS(=O)(=O)c2ccccc2)CC1 (stereo not given) | -0.444 |
| Cc1ccc(-n2c(C)nnc2SCC(=O)N2CCc3ccccc3C2)cc1 | -0.994 |
| COCC(=O)Nc1c(C(=O)Nc2ccccc2OC)oc2ccccc12 | -0.342 |
| Cc1cc(C)c(NS(=O)(=O)c2ccc3c(c2)NC(=O)CC(=O)N3)c(C)c1 | -0.205 |
| Cc1cc(C)cc(C(=O)N2CCC(C(N)=O)CC2)c1 | -0.46 |
| CCOc1ccc(N2C(=O)CC(N(CCc3ccc(OC)cc3)C(=O)c3cccc(F)c3)C2=O)cc1 (stereo not given) | -0.319 |
| CCOC(=O)CNc1ccc(C(=O)OCC)cc1[N+](=O)[O-] | -0.536 |
| O=C(Nc1cc(C(F)(F)F)ccc1N1CCOCC1)c1c(F)c(F)c(F)c(F)c1F | 0.309 |
| O=C(CCN1C(=O)c2ccccc2C1=O)Nc1ccc(S(=O)(=O)NC2=NCCCCC2)cc1 | 0.0925 |
| Cc1nnnn1/C(=C\c1ccccc1)C(=O)OCC(=O)N1CC2(C)CC1CC(C)(C)C2 (stereo not given) | -0.201 |
| O=C(/C=C/c1ccc2c(c1)OCO2)NCCSCc1ccc(Cl)cc1Cl | -0.409 |
| CCN(CC)C(=O)CN(C)S(=O)(=O)c1cccc2nsnc12 | -0.307 |
| COc1cc(/C=N/NC(=O)C(=O)Nc2ccccn2)ccc1O | -0.198 |
| COc1cccc(/C=N/NC(=O)CC(=O)NCCc2ccc(OC)c(OC)c2)c1 | -0.018 |
| CCn1c(SCC(=O)Nc2nc(-c3ccc(C)cc3)cs2)nnc1-c1ccccc1O | -1.61 |
| O=C(NC1CC1)c1cc(Cl)ccc1[N+](=O)[O-] | -0.0765 |
| CN1CCN(C2=Cc3ccccc3Sc3cc(F)c(F)cc32)CC1 | 0.49 |
| C/C(Cn1nnc([N+](=O)[O-])n1)=N\NC(=O)c1cccc(Cl)c1 | -0.23 |

| Structure (SMILES) | z-score |
| --- | --- |
| CCCN(CCC)c1ncnc2c1cnn2-c1ccc(OC)cc1 | -0.333 |
| NC1=NC(=O)S/C1=C\c1ccc(O)cc1 | -0.241 |
| CC(=O)[C@H]1[C@@H]2C(=O)N(c3cccc(Cl)c3)C(=O)[C@@H]2[C@H]2c3ccccc3C=CN21 | 0.0244 |
| O=C(c1cccc(S(=O)(=O)N2CCOCC2)c1)N1CCN(c2ccc(F)cc2)CC1 | -0.3 |
| Cc1ccc(C(=O)c2ccc([N+](=O)[O-])cc2)cc1C | 0.56 |
| CCC(C)NC(=O)C1CCC(=O)N1Cc1ccc(C)cc1 (stereo not given) | 0.401 |
| N=C1/C(=C/c2cccn2-c2cccc([N+](=O)[O-])c2)C(=O)N=C2SC=CN12 | -0.207 |
| Cc1ccc(S(=O)(=O)NC(C)(C)CSc2nncn2N)cc1 | 0.228 |
| O=C(Nc1cc(C(=O)N2CCCC2)ccc1N1CCCC1)C1CC1 | 0.345 |
| Cc1cccc(OCC(O)Cn2c(NCc3cccnc3)nc3c2c(=O)[nH]c(=O)n3C)c1 (stereo not given) | 0.247 |
| CC(C)CCNC1=NCCCCC1 | 0.614 |
| Cc1ccccc1NC(NC(=O)c1cccs1)C(Cl)(Cl)Cl (stereo not given) | -0.934 |
| O=C(N[C@@H](Cc1ccccc1)C(=O)O)c1cccnc1 | 1.48 |
| O=S(=O)(c1ccccc1)N1CCCC1c1nc2ccccc2s1 (stereo not given) | -0.228 |
| CCOC(=O)c1cnc(SCc2cccc(C)c2)nc1N | -0.132 |
| COC(=O)N/N=C/c1cc(Cl)cc(Cl)c1OCc1ccc(F)cc1 | 1.09 |
| CCc1nnc(NC(=O)CSc2nc3ccccc3c(=O)n2CCCOC)s1 | -0.0586 |
| COc1cccc(-c2csc3nnc(SCC(=O)c4ccc(NC(C)=O)cc4)n23)c1 | -0.299 |
| Cc1ccc(C(=O)NCCc2nnc3ccc(SCC(=O)Nc4ccccc4C)nn23)cc1 | -0.0798 |
| CC1CCN(C(=S)NC(=O)C2CCCCC2)CC1 | 0.322 |
| CC(C)(C)NC(=O)COC(=O)c1ccccc1OCC(=O)Nc1ccc(Br)cc1 | -0.154 |
| CC(C)[C@H]1CC[C@@H](C)C(C(=O)c2ccccc2)C1=O (stereo not given in full) | 0.151 |

| Structure (SMILES) | z-score |
| --- | --- |
| COc1cc(C(=O)Nc2ccc(S(=O)(=O)N3CCc4ccccc43)cc2)cc(OC)c1OC | 0.123 |
| CC(C)NC(=O)Nc1cccs1 | -0.115 |
| COc1ccccc1OCCn1cc(/C=C(\C#N)C(=O)NCc2cccs2)c2ccccc21 | -0.349 |
| Cc1c(NC(=O)c2ccc(Br)o2)c(=O)n(-c2ccccc2)n1C | 0.216 |
| O=C(NC1CCCCC1)C(c1ccc(F)cc1)N(C(=O)c1cccs1)c1ccc2c(c1)OCO2 (stereo not given) | 0.326 |
| FC(F)Oc1ccc(NC(=S)NCc2ccccc2)cc1Cl | 0.178 |
| COC(=O)C1C(=O)NCC1c1ccccc1 (stereo not given) | -0.506 |
| Cn1c(SC2CCCCC2=O)nnc1-c1ccncc1 (stereo not given) | -0.152 |
| CCOc1ccc(N(CC(=O)NCC2CCCO2)S(=O)(=O)c2ccc(Cl)cc2)cc1 (stereo not given) | -0.333 |
| COc1ccc(C(=O)/C=C/NCc2ccc(C)cc2)cc1 | -0.0177 |
| N/C(=N\OC(=O)c1ccc2ccccc2c1)c1cccc([N+](=O)[O-])c1 | -0.297 |
| CC(C)c1nc2ccc(NC(=O)C34CC5CC(CC(C5)C3)C4)cc2[nH]1 | -0.198 |
| CCc1ccc(CCC(=O)Nc2ccc(OC)cc2)o1 | -0.00289 |
| Cc1nnc2sc(-c3ccco3)nn12 | 0.144 |
| O=c1c2ccccc2n2c(-c3ccc(C(F)(F)F)cc3)nnc2n1Cc1ccccc1 | -0.194 |
| Cc1ccc(C(=O)CSc2nc(-c3ccccc3)ccc2C#N)cc1 | -0.197 |
| Cc1cccc(NC(=O)N(C)Cc2cccs2)c1 | -0.194 |
| Cc1nc(NCCc2ccccc2)c2oc3ccccc3c2n1 | -0.143 |
| COc1ccc(N2CC(C(=O)O)CC2=O)cc1 (stereo not given) | -0.141 |
| COc1ccc(S(=O)(=O)NNC(=O)c2csc(-n3nc(C)cc3C(F)(F)F)n2)cc1OC | -0.535 |
| Cn1c(NCC(O)CO)nc2c1c(=O)n(Cc1ccc(Cl)c(Cl)c1)c(=O)n2C (stereo not given) | -0.188 |
| CCOC(=O)/C=c1\s/c(=C\c2ccc(-c3ccccc3)cc2)c(=O)n1CC(=O)NCc1ccc2c(c1)OCO2 | -1.92 |
